From the supplement of paper PMC11383711 come the findings set out here.

The target in assay [1] is H1 HA stem construct (mini-HA #4900). As to the kind of experiment: mRNA display binding score; higher = more enriched on the antigen. The note with it: antigen blocked with: nothing. As to the method: (§1)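 A pool of natively paired antibodies, displayed as scFv on mRNA, was selected once on antigen-coated beads and sequenced before and after; two replicates.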
The target of assay [2] is H3 HA stem construct (H3ssF). Described as above. The note with it: antigen blocked with: nothing. Here is the method: as §1

The other results are listed elsewhere or left out. Binding of human antibodies (heavy:light variable regions, tested as scFv in one mRNA-display pool) to influenza hemagglutinin, with or without the stem antibody CR9114 bound first. Score = (mean enrichment − median) / interquartile range of that screen; higher = more enriched, 0 = typical non-binder. Active = above the paper's cut-off per screen: stems 28; unblocked H1 Solomon Islands 5, H1 Michigan 3, H3 5, H5 19, H7 2.85, both B 5; blocked 9, 7, H5 10, H7 10, B Phuket 10, B Lee 11.5. Scores are scaled within each screen and are no affinities; replicates correlate at about 0.6 to 0.9, and antibodies rare in the pool are noisier.

B1: 013-10-3F02 (protein)
chain 1: QVQLVESGGGVAQPGRSLRLSCAASGFTFSTYGMHWVRQAPGKGLEWVAVISYDGSKRYYAEILKDRFTISRDNSKNTVYLQMNSLRTEDTAVYFCAKEGRPLIVSGTHFFQFYYGMDVWGQGTTVTVSS
chain 2: DIQMTQSPSSLSASVGDRVTISCRASQSIGTYLNWYQQKPGKAPNLLIYGTSTLKSGVPSRFSGSGSGTDFTLTIGSLQPEDFATYFCQQSFSPPLTFGRGTRLEIK
With B1, the figures for the “mRNA display binding score” value in assay [1] and in assay [2] were inactive: 1.47 and inactive: 0.804, respectively.

B2: 042-10-2C02 (protein)
chain 1: EVQLVESGGGLVQPGRSLRLSCKASGFKFGDFALSWVRQAPGKGLEWVGFIRSRRSGGTTEYVASVKGRFIISREDSKSIAYLQMNSLKTEDTAVYYCTRERMIDTGVGGHWGQGTLVTVSS
chain 2: DIVMTQSPLSLPVTPGESASISCRSSQSLQHSNGYNYLDWYLQKPGQSPQLLIFLASNRASGVPDRFSASGSGTDFTLHISRVEAEDVGVYYCLQGLQTPFTFGPGTKVDIK
Consider B2, for which the “mRNA display binding score” value is inactive: -0.0214 in assay [1] and inactive: -0.523 in assay [2].

B3: AG1-E04 (protein)
chain 1: VQLVESGGGVVQPGRSLRLSCSASGFTFRSFAMHWVRQAPGRGLEWVAVMWIDGRGKDYADSVKGRFTISRDNSKSTLYLQMNNLRAEDTAVYYCARDQATKGLKPWGQGTLVTVSS
chain 2: DIQMTQSPSSLSASVGDKITITCRASQSISTYLNWYQQKPGTAPKLLIYAASSLQSGVPSRFSGSGSGTGFTLTISSLQPEDFATYYCQQSYSTPYTFGQGTKVEIK
Turning to B3, the “mRNA display binding score” value in assay [1] was inactive: -0.537; in assay [2] it was inactive: -0.422.

B4: W85-1D12 (protein)
chain 1: QVQLQESGPGLVQPSETLSLTCTVSGGSSSGHYWSWIRQPPGKGLEWMGHVYNSGSTNYNPSLKSRVTISVDTSKSQFSLKLTAVTAADTAVYYCARGAGYDYAWGSYRWNYFDNWGQGTPVTVSS
chain 2: DIQMTQSPSSLSASVGDRVTITCQASQDISNYLNWYQQKPGKAPRVLIYDASNLETWVPSRFTGRGSGTDFSVSISSLQPEDIATYYCQQYHNFPYTFGQGTNLESK
As for B4, the “mRNA display binding score” value in assay [1] was inactive: -0.0843; in assay [2] it was inactive: -0.106.

B5: W85-1C01 (protein)
chain 1: QVQLQESGPRLVKPSETLSLTCTVSGGSISTTNYYWGWIRQTPGKGLEYIGSVSYSGKPYYNPSLRGRVTISVDTSKTQFSLTVISVTAADTAVYYCTRQAEGGWYGGFSNSWGQGTLVTVSS
chain 2: DIQMTQSPSTLSASVGDRVTITCRASQSISSWLAWYQQKAGKAPKLLIYKASTLEVGVPSRFSGRGSGTEFTLTISSLQPDDFATYYCQQYDSYLTFGGGTKVEIK
On to B5, for which the “mRNA display binding score” value in assay [1] is inactive: 0.914; in assay [2] it was inactive: -4.1e-06.

B6: 01.q.01 (protein)
chain 1: QVQLQESSPGLVKPSQTLSLKCTVSGGSVSGGRYSWNWLRQPAGKGLEWIGHIYTTGTINYNPSLRSRVTISVDTSKNQFSLKLSSMTAADTAVYFCARAHLPDVGHYYGLDVWGQGTTVTVSS
chain 2: DIQLTQSPSSLSASVGDRVTITCRASQGISSYLAWYQQKPGKAPKLLIYAASTLQSGVPSRFSGSGSGTYFTLTISSLQPEDFATYYCQQLNRDLTFGGGSKVEIK
Regarding B6, the entries for the “mRNA display binding score” value in assay [1] and in assay [2] were inactive: 1.3 and inactive: 2.49, respectively.

B7: C1-E04 (protein)
chain 1: VQLQESGPGLVKPSETLSLTCTVSGDSIISSGSYWAWIRQPPGKGLEWIGFVYYSGSTYYSTSLKSRVTISVDTSKNQFSLKLTSVTAADTAVYFCARDRGGEEYYYGMDVWGPGTTVTVSS
chain 2: DIQMTQSPSSLSASVGDRVSITCRASQFIINNLNWYQKKPGKAPWLLIYSASTLQSGVPSRFSGSRSGTDFTLTISSLEPEDFATYYCQQGYSTPHTFGQGTKVEIK
For the molecule B7, the “mRNA display binding score” value was inactive: -0.999 in assay [1] and inactive: -0.511 in assay [2].

B8: antibody 3E05 (protein)
chain 1: VQLVQSGAEVKKPGASVKVSCKASGYTFTTYDIHWVRQAPGQGLEWMGWLNPNSGYTVYAQKFQGRLTMTRNTSIRIAYLELSSLRSEDTAVYYCARDDGYCTSNNCYSRGMDVWGQGTTVTVSS
chain 2: EIVLTQSPGTLSLSPGERATLSCRASQNFSSNYLAWYQQKPGQAPRLLIYGASSRATGIPDRFSGSGSGTDFTLTISRLEPEDFAVYYCHQYGRSFGQGTKVEIK
Take B8: the entries for the “mRNA display binding score” value in assay [1] and in assay [2] were inactive: -0.424 and inactive: -0.191, respectively.

B9: 014-10-3F03 (protein)
chain 1: QVQLVESGGGVVQPGRSLRLSCAASGFTFSNHGMHWVRQAPGKGLEWVAVISFDGRKEYYANSVTGRFTISRDNSKNTLYLQLNSLRPEDTAFYYCAKDSYNGNREGGMDVWGQGTTVTVSS
chain 2: QSALTQPRSVSGSPGQSVTISCTGTSSDVGYYNYVSWYQQEPGKATKLMIYEVTKRPSGVPDRFSGSKSGNTASLTISGLQGEDEADYYCFSYAGRYTWVFGGGTKLTVL
On to B9, for which the figures for the “mRNA display binding score” value in assay [1] and in assay [2] were inactive: -0.908 and inactive: 3.37, respectively.

B10: W85-3F01 (protein)
chain 1: EVQLVESGGDLVQPGRSLRLSCEASGFTFSSYEMSWVRQPPGKGLEWVSYISSSGATFYYADAVKGRFTISRDNAKNSLYLQMNSLRAEDTAVYYCASLITGYNSYWYWVDHLDSWGHGTLVTVSS
chain 2: DIVMTQSPLSLPVTPGEPASISCRSSQSLLHSNGYNYLDWYLQKPGQSPQLLIYLGSIRASGVPDRFNGSGSGTDFTLKIIRVEAEDVGVYYCMQALQTAFTFGPGTKVDIK
In the case of B10, the entries for the “mRNA display binding score” value in assay [1] and in assay [2] were inactive: 0.303 and inactive: 2.01, respectively.

B11: C2-3-G05 (protein)
chain 1: VQLQESGPGLVKPSETLSLTCTVSGGSISYSNFYWGWIRQPPGKGLEWIGSVYYSGTTYYNPSLKSRVTISIDTSKNQISLKLNFVTAADTALYYCSRLQPYTNYGRSHYYFYALDVWGQGTTVTVSS
chain 2: EIVLTQSPVTLSLSPGERATLSCRASQSIATSLAWYQHKPGQTPRLLIFDASERATGIPARFSGSGSGTDFTLTISSLEPEDFAVYYCQERSNWPRLTFGGGTKVEIK
With B11, the “mRNA display binding score” value in assay [1] was inactive: 1.01; in assay [2], inactive: 0.839.

B12: K77-2H12 (protein)
chain 1: EVQLVESGGGLVQPGGSLRLSCAASGFTFTNYWMTWVRQAPGKGLEWVANIKQDGSDKNYVDSLKGRFTISRDNAKKSLFLQMNSLGAEDTAVYYCARDFSDFGDLYFDYWGQGALVTVSS
chain 2: QSALTQPRSVSGSPGQSVTVSCTGTRSDVGGYNYVSWYQQHPGKAPKLIIYDVSERPSGVPDRFSGSKSGNTASLTISGLQAEDEADYYCCSYAGSYTWVFGGGTKLT
For the molecule B12, the “mRNA display binding score” value in assay [1] was inactive: -0.168; in assay [2], inactive: 2.64.

B13: AG12-3A03 (protein)
chain 1: VQLVESGGGLAQPGRSLRLSCRTSGFRFVDYGMSWFRQAPGKGLEWVSFIGSKSYGATKDYAASVRDRFIISRDDSKSIAYLEMNSLKTDDTAIYYCSRVPLLWRNGWDDDYWGQGTLVTVSS
chain 2: DIQMTQSPSSLSASVGDRVTITCRASQDITNYLAWFQQRPGEAPKSLIYGASGLQTGVPSRFSGSGSGTDFTLTINSLQPEDFATYYCQQFYNYPITFGGGTKVEIK
For B13, the “mRNA display binding score” value in assay [1] is inactive: 1.8; in assay [2], inactive: 0.921.

B14: R95-1H04 (protein)
chain 1: QVQLQESGPGLVKPSETLSLTCSLSSGYIGTYSWNWIRQAPGKGLEWIGYVSNSGSTKYNPSLQSRVTISVDMSKNQFSLELRSVSAADTALYYCARAHYFGSGNFIYGYFYYGMDVWGQGTMVTVSS
chain 2: SYELTQPPSVSVSPGQTASITCSGDKLGDKYACWYQQKPGQSPLLVIYQDTKRPSGVPERFSGSNSGNTATLTINGTQAMDEADYYCQAWDITTHVAFGGGTKLSVL
B14: the “mRNA display binding score” value in assay [1] was inactive: 0.568; in assay [2], inactive: 0.411.

B15: 36.d.02 (protein)
chain 1: QVQLQESGPGLVKPSQTLSLTCIVSGGSISSGDYFWSWIRQPPGKGLEWIAYMYYTGSTYYNPSLKSRVAISVDTSKNHLALKLTSVTAADTAVYYCGRIPRDIVLVPGGSRWAATIDDWGQGILVTVSS
chain 2: EIVMTQSPVSLSLSPGERATLSCRASQSVSSYLAWYQQKPGQAPRLLIYGASNRATDIPARFRGSGSGTDFTLTISSLDPEDFAVYYCQQYTNWPRTFGQGTKVETK
As for B15, the entries for the “mRNA display binding score” value in assay [1] and in assay [2] were inactive: 0.033 and inactive: 0.0676, respectively.

B16: K77-2B11 (protein)
chain 1: LVQFQESGPGLVKPSETLSLTCTVSGGSISSSTYYWGWIRQPPGKGLEWIGSIYYDGSTYYNPSLKSRVTISVDTSKSRFSLTLSSVTAADTAIFYCARVAQWLRPGYFDYWGQGTLVTVSS
chain 2: DIVMTQSPDSLAVSLGERATINCKSSQSILYSSINKNYLAWYQQKPGQPPKLLIYWASTRESGVPDRFSGSGSGTDFTLTISSLQAEDVAVYYCQQYYGTPPTFGQGTKLEIK
Consider B16, for which the “mRNA display binding score” value in assay [1] was inactive: 0.658; in assay [2], inactive: 0.473.

B17: 039-10-5B02 (protein)
chain 1: QVQLQESGPGLVKPPQTLSLTCTVSGGSVSSGTYYWSWIRQPAGKGPEWIGRIYTTGSTDYNPSLKSRVTISIDTSNNRFSLRLNSVTAADTAVYYCARVGPHPTQGVSYFDHWGQGILVTVSS
chain 2: EIVLTQSPVTLSLSPGERATLSCRASQSFSNYLAWYQQKPGQAPRLLIYDASTRATGVPARFSGSGSGTDFTLTISSLEPEDFAVYYCQLRSNWPLFFTFGPGTKVDIK
With B17, the “mRNA display binding score” value in assay [1] is inactive: -0.132; in assay [2], inactive: 0.857.

B18: R95-2C10 (protein)
chain 1: EVQLVESGGVAVKPGGSLRLSCAASGFTFDDYVMHWVRQVPGKGLEWVSLISWDGGSRYYADSVKGRFTISRDNSKNSLYLQMNNLRPEDTALYYCVKDRESGNYYHFYYMDAWGKGTTVTVS
chain 2: QSVLTQPPSVSAAPGQKVTISCSGSSSNIGNNHVSWFQQLPGTAPKLLIYDNDKRPSGIPDRFSGSKSGTSATLGITGLQTGDEADYYCETWDSSLSGGGVVFGGGTRLTVI
Regarding B18, the results for the “mRNA display binding score” value in assay [1] and in assay [2] were inactive: -1.31 and inactive: 0.335, respectively.

B19: K77-1E03 (protein)
chain 1: LVQLQESGPGLVKPSETLSLTCTVSDGSISNYYWSWIRQPPGKGLEWIGYIFYSGSTNYNPSLKSRVSISVDTSKNQFSLKLRSVTAADTAVYYCARRQGWFHNAFDIWGQGTMVIVSS
chain 2: DIQMTQSPSSLSASVGDRVTITCRASQSIYSYLSWYQQKPGKAPKLLIYAASSLQSGVPSRFSGSGSGTDFTLTISSLQPEDFASYYCQQSYTTPRTFGQGTKLEIK
B19: the “mRNA display binding score” value is inactive: 0.164 in assay [1] and inactive: -0.188 in assay [2].
